According to article PMC10632493:
These are yes or no findings as the source states them, for the method shown. Binding seen in cells or lysates may run through a third protein. Some results given as binding are weak or reduced against the parent protein; the word gives no strength. For part of these data: Tags and fused reporters may be left off the sequences shown.

The chains behind the UniProt entries cited, without tags or fusion partners.
UniProt O95271: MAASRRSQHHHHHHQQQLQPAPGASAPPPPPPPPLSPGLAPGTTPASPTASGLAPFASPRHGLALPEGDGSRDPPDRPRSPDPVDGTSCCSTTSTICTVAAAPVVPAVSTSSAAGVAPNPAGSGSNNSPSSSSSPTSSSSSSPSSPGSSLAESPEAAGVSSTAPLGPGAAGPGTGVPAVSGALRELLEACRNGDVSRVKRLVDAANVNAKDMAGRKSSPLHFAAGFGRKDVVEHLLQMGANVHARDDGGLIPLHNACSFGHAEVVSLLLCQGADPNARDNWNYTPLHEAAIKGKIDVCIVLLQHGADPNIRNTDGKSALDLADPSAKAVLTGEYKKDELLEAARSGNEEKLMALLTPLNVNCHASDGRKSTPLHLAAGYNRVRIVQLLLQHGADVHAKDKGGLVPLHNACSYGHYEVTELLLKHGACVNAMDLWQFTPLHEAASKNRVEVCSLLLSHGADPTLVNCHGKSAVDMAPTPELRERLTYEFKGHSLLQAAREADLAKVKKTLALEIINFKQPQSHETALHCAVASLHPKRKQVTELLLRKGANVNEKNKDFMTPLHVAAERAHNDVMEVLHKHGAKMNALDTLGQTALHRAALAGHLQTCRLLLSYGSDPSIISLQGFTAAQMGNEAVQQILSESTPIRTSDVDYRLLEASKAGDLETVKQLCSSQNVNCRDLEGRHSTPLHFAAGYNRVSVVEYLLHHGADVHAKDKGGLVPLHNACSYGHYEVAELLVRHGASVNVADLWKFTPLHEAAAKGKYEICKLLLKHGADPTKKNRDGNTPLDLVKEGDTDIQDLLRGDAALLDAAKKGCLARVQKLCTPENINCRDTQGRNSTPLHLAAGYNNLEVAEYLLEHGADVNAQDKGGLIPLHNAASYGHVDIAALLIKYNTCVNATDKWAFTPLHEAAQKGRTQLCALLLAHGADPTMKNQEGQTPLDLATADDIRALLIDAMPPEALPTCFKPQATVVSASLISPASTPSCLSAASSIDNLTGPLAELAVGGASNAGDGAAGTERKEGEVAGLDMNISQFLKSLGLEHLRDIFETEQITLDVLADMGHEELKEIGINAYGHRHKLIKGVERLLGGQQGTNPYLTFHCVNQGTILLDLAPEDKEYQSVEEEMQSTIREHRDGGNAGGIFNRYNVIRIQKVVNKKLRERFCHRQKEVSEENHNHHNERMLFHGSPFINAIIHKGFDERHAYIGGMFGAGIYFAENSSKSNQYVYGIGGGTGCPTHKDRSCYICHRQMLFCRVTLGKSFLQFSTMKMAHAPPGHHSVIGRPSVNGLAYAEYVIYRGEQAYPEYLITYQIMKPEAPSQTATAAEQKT

What was measured:
[1] = target: Flag-epitope-tagged RNF166 (FlagRNF166) (UniProt Q96A37); test: co-IP; HEK293T cells transfected with Flag plasmids, with or without TNKSi (10 µM); TNE lysate; anti-Flag beads 2 h at 4 °C; immunoblot for endogenous TNKS1
[2] = target: FlagRNF166 UIM point mutant (A229P/S233Q; U**) (UniProt Q96A37); test: as above
[3] = target: FlagRNF166 UIM deletion (UIMΔ; UΔ) (UniProt Q96A37); test: as above
[4] = target: T1, UIM of RNF166 fused to GFP (GFPU) (UniProt Q96A37); test: as above
T1 sequence: DEEAAFQAALALSLSEN

[5] = target: Flag-epitope-tagged RNF166 (FlagRNF166) (UniProt Q96A37); test: co-IP; SuperHeLa cells transfected with Flag plasmids, with or without TNKSi (10 µM); lysate in TNE buffer (10 mM Tris pH 7.8, 1% NP-40, 0.15 M NaCl, 1 mM EDTA); anti-Flag beads 2 h at 4 °C; immunoblot for endogenous TNKS1
[6] = target: FlagRNF166 C2HC mutant (C98G; C*) (UniProt Q96A37); test: as above
[7] = target: FlagRNF166 RING mutant (C33S/C36S; R**) (UniProt Q96A37); test: as above
[8] = target: FlagRNF166 Di19 mutant D1* (C152R) (UniProt Q96A37); test: as above
[9] = target: FlagBAP (bacterial alkaline phosphatase) [phosphatase: P00634]; test: as above
[10] = target: FlagRNF166 Di19 mutant D2* (C182G) (UniProt Q96A37); test: as above
[11] = target: FlagRNF166 UIM deletion (UIMΔ; UΔ) (UniProt Q96A37); test: as above
[12] = target: Flag-epitope-tagged RNF166 (FlagRNF166) (UniProt Q96A37); test: co-IP; U2OS cells transfected with Flag plasmids; TNE lysate; anti-Flag beads 2 h at 4 °C; immunoblot for endogenous TNKS1
FlagRNF166 G47A = FlagRNF166 G47A (UniProt Q96A37); test: as above
[13] = target: FlagRNF166 2GA (G19A and G47A) (UniProt Q96A37); test: as above
FlagRNF166 G19A = FlagRNF166 G19A (UniProt Q96A37); test: as above

With “endogenous tankyrase 1 (TNKS1) (from UniProt O95271 1-1327) (enzyme)” the binding [1] was “binds”, the binding [2] was “binds weakly” and the binding [3] was “binds weakly”. The binding [4] was “no binding”, the binding [5] was “binds” and the binding [6] was “binds”. For the same substance, the binding [7] was “binds”, the binding [8] was “no binding” and the binding [9] was “no binding”. The binding [10] was “no binding”, the binding [11] was “binds” and the binding [12] was “binds”. The binding (FlagRNF166 G47A) was “binds”, the binding [13] was “binds” and the binding (FlagRNF166 G19A) was “binds”.
